# According to patent publication US9890133B2 (priority 2011, dated 2018):
# Read-outs that look alike come from different tables or passages of the source.
# Legend:
# [1] = test system: Coxsackie B3; test: microbe, parasite or virus in culture; details: Enterovirus B
# [2] = test system: Coxsackie B1; test: organism not typed; details: read-out: Coxsackie B1 EC50
# [3] = test system: Rhinovirus; test: microbe, parasite or virus in culture; assay type: cell-based; details: Enterovirus, HRV14, read-out: Rhino HRV14 EC50
# [4] = B3, read-out: Coxsackie B3 EC50
# [5] = B3, HeLa37, 48 h, read-out: Coxsackie B3 EC50
structure (smiles),measurement,setting,value
"CC(=O)O[C@@]12Oc3cc(C(C)C)ccc3[C@]1(OC(C)=O)C(=O)c1c(NS(C)(=O)=O)cccc12 (stereo in doubt) [Example 54, acetic acid 4b-acetoxy-7-isopropyl-1-methanesulfonylamino-10-oxo-4b,10-dihydro-5-oxa-indeno[2,1-a]inden-9b-yl ester]",EC50,[1]; [4],0.0147 µg/mL
same,EC50,[2],0.014 µg/mL
"Cc1ccc2c(c1)OC1(O)c3ccccc3C(=O)C21O (stereo not drawn) [Example 1, 4b,9b-Dihydroxy-7-methyl-4bH-benzo[d]indeno[1,2-b]furan-10(9bH)-one]",EC50,[2],0.026 µg/mL
"CC(=O)OC12Oc3cc(C)ccc3C1(OC(C)=O)C(=O)c1ccccc12 (stereo not drawn) [Example 2, 7-Methyl-10-oxo-9b,10-dihydro-4bH-benzo[d]indeno[1,2-b]furane-4b,9b-diyl diacetate]",EC50,[1]; [4],0.02 µg/mL
"Cc1cc2c(cc1C)C1(O)C(=O)c3ccccc3C1(O)O2 (stereo not drawn) [Example 4, 4b,9b-dihydroxy-7,8-dimethyl-4bH-benzo[d]indeno[1,2-b]furan-10(9bH)-one]",EC50,[1]; [4],0.019 µg/mL
"CCc1ccc2c(c1)OC1(O)c3ccccc3C(=O)C21O (stereo not drawn) [Example 9, 7-Ethyl-4b,9b-dihydroxy-4bH-benzo[d]indeno[1,2-b]furan-10(9bH)-one]",EC50,[1]; [4],0.027 µg/mL
same,EC50,[2],< 0.01 µg/mL
"CC(=O)OC12Oc3cc(C(C)C)ccc3C1(OC(C)=O)C(=O)c1ccccc12 (stereo not drawn) [Example 11, 7-Isopropyl-10-oxo-9b,10-dihydro-4bH-benzo[d]indeno[1,2-b]furane-4b,9b-diyl diacetate]",EC50,[1]; [4],< 0.01 µg/mL
same,EC50,[2],< 0.01 µg/mL
"CC(C)(C)c1cc(C(C)(C)C)c2c(c1)C1(O)C(=O)c3ccccc3C1(O)O2 (stereo not drawn) [Example 24, 6,8-di-tert-Butyl-4b,9b-dihydroxy-4bH-benzo[d]indeno[1,2-b]furan-10(9bH)-one]",EC50,[2],0.013 µg/mL
"CC(C)OC(=O)Nc1cccc2c1C(=O)C1(O)c3ccc(C(C)C)cc3OC21O (stereo not drawn) [Example 29, Isopropyl 4b,9b-dihydroxy-7-isopropyl-10-oxo-9b,10-dihydro-4bH-benzo[d]indeno[1,2-b]furan-1-ylcarbamate]",EC50,[2],0.355 µg/mL
"C=CC(=O)OC12Oc3cc(C(C)C)ccc3C1(O)C(=O)c1ccccc12 (stereo not drawn) [Example 35, 9b-Hydroxy-7-isopropyl-10-oxo-9b,10-dihydro-4bH-benzo[d]indeno[1,2-b]furan-4b-yl acrylate]",EC50,[2],< 0.01 µg/mL
"CC(C)c1ccc2c(c1)OC1(OC(=O)c3ccco3)c3ccccc3C(=O)C21O (stereo not drawn) [Example 36, 9b-Hydroxy-7-isopropyl-10-oxo-9b,10-dihydro-4bH-benzo[d]indeno[1,2-b]furan-4b-yl furane-2-carboxylatefurane-2-carboxylic acid]",EC50,[2],< 0.01 µg/mL
"CCOC(=O)OC12Oc3cc(C(C)C)ccc3C1(OC(=O)OCC)C(=O)c1ccccc12 (stereo not drawn) [Example 37, Diethyl 7-isopropyl-10-oxo-9b,10-dihydro-4bH-benzo[d]indeno[1,2-b]furane-4b,9b-diyl dicarbonate]",EC50,[2],< 0.01 µg/mL
"CCOC(=O)OC12Oc3cc(C(C)C)ccc3C1(O)C(=O)c1ccccc12 (stereo not drawn) [Example 38, Ethyl 9b-hydroxy-7-isopropyl-10-oxo-9b,10-dihydro-4bH-benzo[d]indeno[1,2-b]furan-4b-yl carbonate]",EC50,[2],< 0.01 µg/mL
"CCN(CC)C(=O)OC12Oc3cc(C(C)C)ccc3C1(O)C(=O)c1ccccc12 (stereo not drawn) [Example 40, 9b-Hydroxy-7-isopropyl-10-oxo-9b,10-dihydro-4bH-benzo[d]indeno[1,2-b]furan-4b-yl diethylcarbamate]",EC50,[2],< 0.01 µg/mL
"CCN(CC)C(=O)OC12C(=O)c3ccccc3C1(O)Oc1cc(C(C)C)ccc12 (stereo not drawn) [Example 41, 4b-Hydroxy-7-isopropyl-10-oxo-9b,10-dihydro-4bH-benzo[d]indeno[1,2-b]furan-9b-yl diethylcarbamate]",EC50,[2],< 0.01 µg/mL
"CC(C)c1ccc2c(c1)O[C@@]1(O)c3cccc(N)c3C(=O)[C@@]21O [Example 46, 1-Amino-4b,9b-dihydroxy-7-isopropyl-4bH-benzo[d]indeno[1,2-b]furan-10(9bH)-one]",EC50,[2],< 0.01 µg/mL
same,EC50,[3],< 0.01 µg/mL
"CC(=O)O[C@@]12Oc3cc(C(C)C)ccc3[C@]1(OC(C)=O)C(=O)c1c(N)cccc12 [Example 47, 1-Amino-7-isopropyl-10-oxo-9b,10-dihydro-4bH-benzo[d]indeno[1,2-b]furane-4b,9b-diyl diacetate]",EC50,[1]; [5],< 0.01 µg/mL
same,EC50,[1]; [4],< 0.01 µg/mL
same,EC50,[2],< 0.01 µg/mL
"COC(=O)Nc1cccc2c1C(=O)C1(O)c3ccc(C(C)C)cc3OC21O (stereo not drawn) [Example 49, Methyl 4b,9b-dihydroxy-7-isopropyl-10-oxo-9b,10-dihydro-4bH-benzo[d]indeno[1,2-b]furan-1-ylcarbamate]",EC50,[2],0.373 µg/mL
"CCc1ccc2c(c1)OC1(O)c3cccc(N)c3C(=O)C21O (stereo not drawn) [Example 50, 1-Amino-7-ethyl-4b,9b-dihydroxy-4b,9b-dihydro-5-oxa-indeno[2,1-a]inden-10-one]",EC50,[1]; [5],< 0.01 µg/mL
same,EC50,[1]; [4],< 0.01 µg/mL
same,EC50,[2],< 0.01 µg/mL
COC(=O)O[C@@]12Oc3cc(C(C)C)ccc3[C@]1(OC(=O)OC)C(=O)c1c(N)cccc12 [Example 51],EC50,[1]; [4],< 0.01 µg/mL
same,EC50,[2],< 0.01 µg/mL
CC(=O)OC12Oc3cc(C(C)C)ccc3C1(OC(C)=O)C(=O)c1c([N+](=O)[O-])cccc12 (stereo not drawn) [Example 53],EC50,[2],0.04 µg/mL
CC(C)NC(=O)Nc1cccc2c1C(=O)C1(O)c3ccc(C(C)C)cc3OC21O (stereo not drawn) [Example 55],EC50,[2],0.084 µg/mL
CC(=O)Nc1cccc2c1C(=O)C1(N)c3ccc(C(C)C)cc3OC21O (stereo not drawn) [Example 56],EC50,[2],0.0784 µg/mL
"CC(=O)Nc1cccc2c1C(=O)C1(NC(C)=O)c3ccc(C(C)C)cc3OC21O (stereo not drawn) [Example 57, N,N′-(4b-Hydroxy-7-isopropyl-10-oxo-9b,10-dihydro-4bH-benzo[d]indeno[1,2-b]furane-1,9b-diyl)diacetamide]",EC50,[2],0.35 µg/mL
"CCCCCCNC12C(=O)c3ccccc3C1(O)Oc1cc(C(C)C)ccc12 (stereo not drawn) [Example 67, 9b-Hexylamino-4b-hydroxy-7-isopropyl-4b,9b-dihydro-5-oxa-indeno[2,1-a]inden-10-one]",EC50,[2],0.596 µg/mL
"CC(C)c1ccc2c(c1)OC1(O)c3ccccc3C(=O)C21N=C=O (stereo not drawn) [Example 69, 4b-Hydroxy-9b-isocyanato-7-isopropyl-4b,9b-dihydro-5-oxa-indeno[2,1-a]-inden-10-one]",EC50,[2],0.43 µg/mL
"CCCCC(=O)NC12C(=O)c3c(N)cccc3C1(O)Oc1cc(C(C)C)ccc12 (stereo not drawn) [Example 78, Pentanoic acid (1-amino-4b-hydroxy-7-isopropyl-10-oxo-4b,10-dihydro-5-oxa-indeno[2,1-a]inden-9b-yl)-amide]",EC50,[2],0.025 µg/mL
same,EC50,[3],< 0.01 µg/mL
"CC(C)c1ccc2c(c1)O[C@@]1(O)c3cccc([N+](=O)[O-])c3C(=O)[C@@]21O [Example 80, 4b,9b-Dihydroxy-7-isopropyl-1-nitro-4bH-benzo[d]indeno[1,2-b]furan-10(9bH)-one]",EC50,[2],0.0139 µg/mL
"CO/N=C1/c2ccccc2C2(O)Oc3cc(C(C)C)ccc3C12O (stereo not drawn) [Example 88, 4b,9b-Dihydroxy-7-isopropyl-4bH-indeno[1,2-b]benzofuran-10(9bH)-one O-methyl oxime]",EC50,[2],0.017 µg/mL
"CC(=O)N1c2cc(C)c(C)cc2C2(O)C(=O)c3ccccc3C12O (stereo not drawn) [Example 104, 5-Acetyl-4b,9b-dihydroxy-7,8-dimethyl-4b,5-dihydroindeno[1,2-b]indol-10(9bH)-one]",EC50,[2],0.015 µg/mL
"CC(=O)NC12C(=O)c3ccccc3C1(OC(=O)C(C)(C)C)Oc1cc(C(C)C)ccc12 (stereo not drawn) [Example 117, 9b-Acetamido-7-isopropyl-10-oxo-9b,10-dihydro-4bH-benzo[d]indeno[1,2-b]furan-4b-yl pivalate]",EC50,[2],0.012 µg/mL
CC(=O)NC12Oc3cc(C(C)C)ccc3C1(NC(C)=O)C(=O)c1ccccc12 (stereo not drawn) [Example 119],EC50,[2],0.027 µg/mL
"CC(=O)NC12C(=O)c3ccccc3C1(OC(=O)Oc1ccccc1)Oc1cc(C(C)C)ccc12 (stereo not drawn) [Example 121, Carbonic acid 9b-acetylamino-7-isopropyl-10-oxo-9b,10-dihydro-5-oxa-indeno[2,1-a]inden-4b-yl ester phenyl ester]",EC50,[2],0.02 µg/mL
"CC(C)c1ccc2c(c1)OC1(O)c3cccc(NCc4ccccc4)c3C(=O)C21O (stereo not drawn) [Example 132, 1-(Benzylamino)-4b,9b-dihydroxy-7-isopropyl-4bH-indeno[1,2-b]benzofuran-10(9bH)-one]",EC50,[2],0.03 µg/mL
"CCNc1cccc2c1C(=O)C1(O)c3ccc(C(C)C)cc3OC21O (stereo not drawn) [Example 133, 1-(Ethylamino)-4b,9b-dihydroxy-7-isopropyl-4bH-indeno[1,2-b]benzofuran-10(9bH)-one]",EC50,[2],< 0.01 µg/mL
"CC(C)C(=O)N1c2cc(C(C)C)ccc2C2(O)C(=O)c3ccccc3C12O (stereo not drawn) [Example 145, 4b,9b-Dihydroxy-5-isobutyryl-7-isopropyl-5,9b-dihydro-4bH-indeno[1,2-b]indol-10-one]",EC50,[2],0.026 µg/mL
"CC(C)c1ccc2c(c1)OC1(O)c3cccc(N(C)C)c3C(=O)C21O (stereo not drawn) [Example 151, 1-(Dimethylamino)-4b,9b-dihydroxy-7-isopropyl-4bH-benzo[d]indeno[1,2-b]-furan-10(9bH)-one]",EC50,[2],0.04 µg/mL
"CC(C)c1ccc2c(c1)OC1(O)c3cccc(N)c3C(=O)C21NS(C)(=O)=O (stereo not drawn) [Example 168, N-(1-Amino-4b-hydroxy-7-isopropyl-10-oxo-9b,10-dihydro-4bH-benzo[d]indeno[1,2-b]furan-9b-yl)methanesulfonamide]",EC50,[2],0.04 µg/mL
CCNC(=O)NC12C(=O)c3c(N)cccc3C1(O)Oc1cc(C(C)C)ccc12 (stereo not drawn) [Example 173],EC50,[2],0.036 µg/mL
"CC(C)c1ccc2c(c1)OC1(O)c3ccccc3C(=O)C21NC(=O)[C@@H](Cc1ccccc1)NC(=O)OC(C)(C)C (stereo partly drawn) [Example 185, tert-Butyl(2R)-1-(4b-hydroxy-7-isopropyl-10-oxo-9b,10-dihydro-4bH-benzo[d]indeno[1,2-b]furan-9b-ylamino)-1-oxo-3-phenylpropan-2-ylcarbamate]",EC50,[2],0.028 µg/mL
"CC(C)c1ccc2c(c1)OC1(O)c3cccc(N)c3C(=O)C21NC(=O)c1cc2ccccn2c1 (stereo not drawn) [Example 283, N-(1-Amino-4b-hydroxy-7-isopropyl-10-oxo-9b,10-dihydro-4bH-indeno[1,2-b]benzofuran-9b-yl) indolizine-2-carboxamide]",EC50,[2],0.024 µg/mL
same,EC50,[3],0.024 µg/mL
